# Assay results as given in PMC4336329 (PLoS ONE, 2015).
# Out of some 310,000 compounds screened, about 2,200 (0.71%) showed an effect of 50% or more. Effects have a minus sign here. The list shows a part of the results.
# Target: human ether-à-go-go-related gene (hERG) potassium channel (human, UniProt Q12809)
# Assay: primary screen, population patch clamp on CHO cells stably expressing hERG
# Protocol: Briefly, Chinese hamster ovary (CHO) cells stably expressing the hERG channel were dislodged from tissue culture flasks and dispensed into PPC plates. […] During the recording, background leak currents were estimated by a 100 ms step to -80 mV from an initial holding potential of -70 mV and subtracted from the subsequent current measurement. The campaign was conducted in two phases using slight differences in recording protocol. In the first phase, the initial voltage pulse used a 100 ms step to -30 mV from a holding potential of -70 mV, a 2 s conditioning step to +25 mV, and a 2 s test step to -30 mV. During the second phase of the screen, the potential during the conditioning step was raised to +45 mV. In both phases of the campaign, a secondary voltage pulse was applied using the same parameters as the second phase initial pulse. The initial and secondary pulses were applied in the absence of compound, and upon application of 1 μM and 10 μM test concentrations. Small molecule effects on hERG current density were quantified by […].
# Sequence of human ether-à-go-go-related gene (hERG) potassium channel (Q12809 whole entry, looked up): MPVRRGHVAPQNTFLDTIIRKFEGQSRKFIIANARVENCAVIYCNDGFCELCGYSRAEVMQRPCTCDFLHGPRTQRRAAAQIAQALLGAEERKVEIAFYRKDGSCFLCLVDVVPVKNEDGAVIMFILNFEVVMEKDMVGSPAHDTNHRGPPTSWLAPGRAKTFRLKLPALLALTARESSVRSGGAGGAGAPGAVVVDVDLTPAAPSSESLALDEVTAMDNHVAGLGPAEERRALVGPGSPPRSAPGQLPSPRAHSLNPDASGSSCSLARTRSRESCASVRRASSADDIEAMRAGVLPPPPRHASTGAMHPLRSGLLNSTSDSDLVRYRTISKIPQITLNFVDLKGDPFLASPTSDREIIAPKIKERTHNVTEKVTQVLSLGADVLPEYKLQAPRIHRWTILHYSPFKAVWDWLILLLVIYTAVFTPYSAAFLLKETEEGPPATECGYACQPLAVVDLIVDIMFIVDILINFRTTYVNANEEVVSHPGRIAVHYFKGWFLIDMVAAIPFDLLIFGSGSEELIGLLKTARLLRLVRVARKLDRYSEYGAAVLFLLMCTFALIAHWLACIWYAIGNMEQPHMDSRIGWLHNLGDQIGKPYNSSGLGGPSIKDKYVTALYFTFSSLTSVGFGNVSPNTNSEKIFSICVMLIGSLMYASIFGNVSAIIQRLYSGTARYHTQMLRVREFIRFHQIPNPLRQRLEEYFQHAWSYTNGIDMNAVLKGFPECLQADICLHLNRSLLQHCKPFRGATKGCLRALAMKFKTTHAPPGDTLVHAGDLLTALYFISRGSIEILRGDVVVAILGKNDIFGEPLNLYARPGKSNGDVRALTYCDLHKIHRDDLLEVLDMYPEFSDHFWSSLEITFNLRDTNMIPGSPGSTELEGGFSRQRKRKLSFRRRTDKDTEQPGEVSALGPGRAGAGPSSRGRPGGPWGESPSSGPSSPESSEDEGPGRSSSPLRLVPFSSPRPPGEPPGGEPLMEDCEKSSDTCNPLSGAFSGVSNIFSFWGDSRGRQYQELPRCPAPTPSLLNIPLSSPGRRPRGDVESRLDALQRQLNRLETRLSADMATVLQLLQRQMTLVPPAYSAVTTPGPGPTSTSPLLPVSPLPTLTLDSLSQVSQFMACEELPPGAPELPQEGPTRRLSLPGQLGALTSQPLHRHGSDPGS
row,SMILES,"hERG current change (%, negative = inhibition) at 1uM"
1,NS(=O)(=O)c1ccc(N2C(=O)C(=O)/C(=C(/O)c3ccccc3)C2c2ccc(Cl)cc2)cc1 (stereo not shown),13.9%
2,COc1ccc(C(=O)NCCCOC(=O)c2ccc(OC)cc2)cc1,1.21%
3,CCc1ccc(-c2cc(C(=O)O)c3ccccc3n2)s1,13%
4,Cc1ccc2c(c1)N(C(=O)CCC(=O)Nc1ccccc1Cl)CC(C)O2 (stereo not shown),11.6%
5,COC(=O)c1ccc(/C=N\N2CCN(Cc3ccc(C)cc3)CC2)cc1,9.94%
6,COc1ccc(-[n+]2c(-c3ccccc3)cc(-c3ccc(C)cc3)cc2-c2ccccc2)cc1.[O-][Cl+3]([O-])([O-])[O-],-52%
7,CC(=O)c1ccc(Nc2c([N+](=O)[O-])ccc3nonc23)cc1,-0.202%
8,Cc1cccc(C(=O)NCC(=O)N2CCN(S(=O)(=O)c3cc(C)ccc3C)CC2)c1,14.5%
9,CCC(=O)NC(c1cccs1)c1cc(Cl)c2ccccc2c1O (stereo not shown),-7.75%
10,Cc1nnnn1CC(=O)Nc1cccc([N+](=O)[O-])c1,5.71%
11,CCn1c(=O)c2cc(C(=O)N(C)c3cc(C)ccc3OC)sc2c2ccccc21,11.8%
12,COc1ccc(N2C(=O)CN(Cc3cc(OC)c(OC)c(OC)c3)C2=S)cc1,13.2%
13,COc1cc(NC(=O)c2ccccc2OCc2ccccc2)cc(OC)c1OC,20.7%
14,Cn1cc(CN2CCN(c3ncccn3)CC2)c(-c2cccc(Cl)c2)n1,-1.8%
15,CCN1CCN(Cc2ccccc2NC(=O)Nc2ccc(C)cc2)CC1,7.04%
16,Brc1ccc(-c2csc(N/N=C/c3ccc4c(c3)OCO4)n2)cc1,12.9%
17,Cc1cccc(OCCNC(=S)NC(=O)c2cccnc2)c1,16.9%
18,O=C(CN1CCCCC1)N1c2ccccc2Oc2ccccc21,9.91%
19,CCc1nnc(NC(=O)c2ccc(Cl)c(S(=O)(=O)N3CCc4ccccc4C3)c2)s1,11.8%
20,COc1ccc(CCn2c(N3CCOCC3)nc3c2c(=O)[nH]c(=O)n3C)cc1,2.83%
21,C#CCOCCOCCOCCNc1nc(N2CCN(C(=O)CCCCCCCCCCNC(=O)[C@@H]([C@H](C)O)n3cc(C)nn3)CC2)nc(N2CCN(C(=O)CCCCCCCCCCNC(=O)[C@@H]([C@H](C)O)n3cc(C)nn3)CC2)n1,4.12%
22,O=C(NCc1ccccc1)c1ccc(-c2ccccc2C(F)(F)F)o1,5.49%

row,SMILES,"hERG current change (%, negative = inhibition) at 1uM"
1,O=c1c2ccccc2oc2cc(-c3ccc4[nH]ccc4c3)ccc12,7.99%
2,CCc1ccccc1NC(=O)CN(C)S(=O)(=O)c1ccc2c(c1)c(=O)n(C)c(=O)n2C,10.7%
3,O=C(O)CCNc1ccc2c(c1)OCCO2,-11.3%
4,CCOC(=O)CCNC(=O)N1CCCC(CNS(=O)(=O)Cc2ccccc2)C1 (stereo not shown),8.76%
5,Cc1cc(SCC(=O)OCC(=O)NCc2ccc3c(c2)OCO3)c(C)cc1Br,-13.9%
6,Cn1ccnc1SCC(=O)c1ccc(Br)cc1,2.05%
7,Cc1nc2ccc(CCO)cc2s1,8.56%
8,CC(=O)Oc1cccc(N2C(=O)c3ccccc3C2=O)c1,-7.37%
9,CNCCc1c(C)n[nH]c1C.Cl,16.3%
10,c1ccc2[nH]c(-c3nc4ccccc4[nH]3)nc2c1,3.07%
11,Cc1ccc(CN(C)C(=O)COC(=O)CSc2ccc([N+](=O)[O-])cc2)cc1,8.47%
12,COc1ccc(C(=O)C(C)(C)NO)cc1.Cl,12.5%
13,CCN1CCN(C(=O)c2cc3ccc(OC)cc3[nH]2)CC1,10.3%
14,O=C(Nc1ccccc1)c1c(F)cccc1F,10.4%
15,CCCNC(=S)N1CCC(C(=O)c2ccc(OC)cc2)CC1,11.2%
16,CCOC(=O)C1=C(C)NC(=O)NC1c1ccc(OC(=O)c2ccco2)c(OC)c1 (stereo not shown),10.1%
17,O=S(=O)(Nc1ccc(-c2cnco2)cc1)c1ccccc1,7.72%
18,COc1ccc(-n2c(SCC(=O)Nc3cc(C)on3)nc3c(c2=O)SCC3)cc1,16.9%
19,Cc1ccc2nc3c(cc2c1)CC1(C(=O)N(C)C(=O)N(C)C1=O)C1COCCN31 (stereo not shown),-11.7%
20,CN1CCN(C(=O)c2ccc(-c3cccs3)s2)CC1,9.86%
21,CCN1CCN(Cc2ccc(NC(=O)c3cc(NC(=O)c4cnn(-c5ccccc5)c4N)cc(OC)c3)cc2C(F)(F)F)CC1,11.6%
